PubChem BioAssay AID2060489 (Molecular Pharmacology Branch, DTP, NCI, 2025)
Certain results were filed several times, with different values. This list holds those alone. There may be further records. Results that share an entry repeat one measurement across runs, samples, wells, individuals or studies. Additions like (4×) say how often a value occurs here.

Test system: 922993-354-T-J3-PDC complex spheroids, viability
Test: Anticancer human tumor 922993-354-T-J3-PDC patient-derived endometrial carcinoma cell line growth inhibition [GQUAD]
Settings: for viability, T/C: stronger effect = lower value
Description: DNA G-quadruplex Stabilizer Agents in Combinations in Complex Spheroids
A high-throughput screen of multi-cell type tumor spheroids was designed to identify active combinations of DNA G-quadruplex stabilizer agents and targeted small molecules. Complex spheroids include a stromal component modeled by human endothelial cells (HUVEC) and fibroblasts modeled by human mesenchymal stem cells (MSCs). The concentration ranges selected for each drug and investigational agent were based upon clinically achievable concentrations if the clinical Cmax of the agent was known.
Compounds. The drugs and investigational agents: pidnarulex (CX-5461; NSC782164), APTO-253 (NSC789042), BRACO-19 (NSC847499), peposertib (NSC802822), ceralasertib (NSC780249), elimusertib (NSC800525), camonsertib (NSC841442), AZD-1390 (NSC803789), olaparib (NSC753686), talazoparib (NSC767125), ART-558 (NSC835418), sotorasib (NSC818433), MRTX-1133 (NSC836407), SN-38 (NSC673596), topotecan (NSC609699), etoposide (NSC141540), doxorubicin (NSC123127), gemcitabine (NSC613327), 5-fluorouracil (NSC19893), paclitaxel (NSC125973), vemurafenib (NSC761431), panobinostat (NSC761190), R-306465 (JNJ-16241199; NSC773264), adavosertib (NSC754352), TP-3654 (NSC805149), carboplatin (NSC241240), KSQ-4279 (NSC840948), and staurosporine (NSC755774) were obtained from the National Cancer Institute (NCI) Developmental Therapeutics Program Chemical Repository (34). The FDA-approved anticancer drug set is available from the NCI Developmental Therapeutics Program. […] The stock solutions were prepared in dimethyl sulfoxide (DMSO, Sigma-Aldrich, St. Louis, MO, cat. D2650) at 800-fold the tested concentration and stored at -70 degrees C prior to their use. All drugs and investigational agents were tested over a range starting from a high concentration at or near the clinical Cmax and decreasing in half-log increments. If the clinical Cmax for an agent had not been determined, the highest concentration tested was 10 microM.
2.3 Cell Culture. All cells were maintained in an incubator at 37 degrees C and 5% CO2 with 95% humidity. The PDC lines were cultured according to standard operating procedures established by the NCI PDMR. All PDCs were thawed and cultured in Matrigel-coated flasks prepared with a working solution of 1X Ham's F-12 nutrient mix, without supplementation (Invitrogen, cat. 11765054), 100 U/mL penicillin-streptomycin (Invitrogen, cat. 15140122), and 2.5% Matrigel (Corning Inc., cat. 354248) for the first three passages. The 857933-349-R-J2-PDC line was cultured in 6C/Colon 1B media, which includes advanced DMEM/F-12 (Thermo Fisher Scientific, cat. 12634028), 10 mM HEPES (Thermo Fisher Scientific, cat. 15630080), 1X GlutaMAX supplement (Thermo Fisher Scientific, cat. 35050061), 0.1 mg/mL primocin (InvivoGen, cat. ant-pm-2), 10% defined fetal bovine serum, heat inactivated (HyClone Laboratories Inc., cat. SH30070.03HI), 50% L-WRN conditioned media (ATCC, cat. CRL-3276), 1.25 mM N-Acetyl-L-cysteine (Sigma-Aldrich, cat. A9165), 10 mM nicotinamide (Sigma-Aldrich, cat. N0636), 1X B-27 supplement (Thermo Fisher Scientific, cat. 17504044), 1X N-2 supplement (Thermo Fisher Scientific, cat. 17502048), 10 microM Y-27632 dihydrochloride (Tocris Bioscience, cat. 1254), and 50 ng/mL human EGF recombinant protein (Thermo Fisher Scientific, cat. PHG0311). The 485176-168-R4-J1-PDC line was cultured in Panc media, which includes all 6C/Colon 1B media components plus 100 ng/mL human FGF-10 (Thermo Fisher Scientific, cat. 100-26), 500 nM SB-431542 (Selleckchem, cat. S1067), and gastrin (Tocris, cat. 3006).
[…]
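Also: spheroids exposed to compounds for seven days.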
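For viability, T/C in this document: 100% = DMSO vehicle control viability.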

CN(C)c1ccc(Nc2c3ccc(NC(=O)CCN4CCCC4)cc3nc3cc(NC(=O)CCN4CCCC4)ccc23)cc1
viability, T/C (compound alone 0.0316 µM): 93, 95.5, 106 (2×), 99.6, 91.4, 93.9, 102, 98.3, 87.6, 82.9, 108%
viability, T/C (compound alone 0.1 µM): 112, 80.8, 115, 129, 103, 88.4, 104, 76.8, 106, 87.2, 102, 95.3%
viability, T/C (compound alone 1 µM): 95.5, 90.2, 98.7, 107, 93.6, 83.5, 96.8, 87, 102, 101, 99.3, 112%
viability, T/C (compound alone 3.16 µM): 104 (3×), 118, 134, 102, 112 (2×), 98.9, 93.3, 97, 107%
viability, T/C (compound alone 10 µM): 107, 112, 124 (2×), 129, 105 (2×), 114, 102, 108 (2×), 87.1%

Cc1[nH]c2ccc(F)cc2c1-c1nc2c3cccnc3c3ncccc3c2[nH]1
viability, T/C (compound alone 0.0316 µM): 85, 90.4 (2×), 101 (2×), 80.6, 91, 97.1, 106 (2×), 94.7, 112%
viability, T/C (compound alone 0.1 µM): 106, 110 (2×), 101, 99, 97.5, 108, 97.2, 78.2, 96.1, 96.2, 88.2%
viability, T/C (compound alone 0.316 µM): 86.2, 98.5, 105, 118, 97.8, 116, 113, 119, 102, 98.9, 104, 107%
viability, T/C (compound alone 1 µM): 86.1, 107, 108, 105, 68.8, 98.7, 89.4, 110, 103, 109, 98.4, 99.1%
viability, T/C (compound alone 3.16 µM): 69.4, 107 (2×), 99.7, 112, 80.7, 96, 89.7, 118, 97.1, 102, 114%

Cc1cnc(CNC(=O)c2c(=O)c3ccc(N4CCCN(C)CC4)nc3n3c2sc2ccccc23)cn1
viability, T/C (compound alone 0.316 µM): 42.8, 49, 48.4, 48.6, 59.4, 50, 36.6, 57.9, 52.2, 52.4, 54.3, 63.2%
IC50 (compound alone, run of 03/18/2024): 206 nM, > 10 µM, 10 µM, 933 nM, 5.13 µM, 368 nM, 256 nM, 1.47 µM, 498 nM, 614 nM, 3.65 µM
